Measurements from PubChem BioAssay AID360 (National Center for Advancing Translational Sciences (NCATS), 2006).
Hit rate of the full screen: of about 48,000 compounds, about 550 (1.1%) were called active. About 4% were inconclusive and are not listed. No stated cut-off is given here; in the data, active means potency below about 15 µM; inconclusive means mostly about 16 µM to 33 µM; inactive means weaker than that. This is one part of the list.

molecular target: Lysosomal acid glucosylceramidase (Homo sapiens) (UniProt P04062); assay: Glucocerebrosidase; conditions: purified enzyme, resorufin glucoside fluorescence (screen aimed at inhibitors), 20 min;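 further: the screen sought inhibitors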
Chain of UniProt P04062 (P04062 whole entry, looked up): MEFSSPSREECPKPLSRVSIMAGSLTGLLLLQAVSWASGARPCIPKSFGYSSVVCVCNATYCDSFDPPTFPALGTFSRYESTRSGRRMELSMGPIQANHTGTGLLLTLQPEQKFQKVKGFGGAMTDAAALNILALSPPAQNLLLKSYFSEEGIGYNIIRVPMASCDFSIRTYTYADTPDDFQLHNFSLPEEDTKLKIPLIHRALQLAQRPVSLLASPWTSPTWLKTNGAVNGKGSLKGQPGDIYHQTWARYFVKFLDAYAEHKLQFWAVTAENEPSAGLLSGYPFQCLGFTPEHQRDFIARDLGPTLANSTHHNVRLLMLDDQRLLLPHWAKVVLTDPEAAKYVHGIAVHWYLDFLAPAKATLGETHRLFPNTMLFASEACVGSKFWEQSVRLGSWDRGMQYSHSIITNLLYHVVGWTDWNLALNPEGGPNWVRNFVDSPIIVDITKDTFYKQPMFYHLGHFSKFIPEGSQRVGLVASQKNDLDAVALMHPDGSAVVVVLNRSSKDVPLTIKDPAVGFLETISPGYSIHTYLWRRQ
In short: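 Normal human glucocerebrosidase (0.2 nM final) was assayed with resorufin β-D-glucopyranoside (30 uM final) in 50mM citric acid/KH2PO4, 10mM sodium taurocholate, 0.01% tween-20, pH 5.9. Compounds were titrated; fluorescence (Ex 548, Em 600) read after 20 min at RT.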
Potency means the concentration at half of the fitted maximal effect.

Potency, inactive:
COc1ccc(Br)cc1C(=O)O > 76.9 µM, COCCSc1ccccc1C(=O)N1CCN(Cc2ccc3c(c2)OCO3)CC1 > 76.9 µM, O=C(c1ccccc1)N1CCN(Cc2ccccc2Br)CC1 > 76.9 µM, CC12C=CC3(O1)C(C(=O)N(c1cccnc1)C3C(=O)NC1CCCCC1)C2C(=O)Nc1ccccc1 (stereo not given) > 76.9 µM, CCn1nnnc1SCC(=O)N(C1CCCCC1)C1CCCCC1 > 76.9 µM, CCc1ccc(C(=O)N2CCCC2)s1 > 76.9 µM, COCCn1nnnc1SCC(=O)c1ccccc1 > 76.9 µM, Cc1cc2n(n1)C(c1ccco1)Nc1ccccc1-2 (stereo not given) > 76.9 µM, O=C(NCC1CCCO1)C(C(=O)c1ccc(F)cc1)n1ccccc1=O (stereo not given) > 76.9 µM, COc1ccc(OC)c(NC(=O)CCN2CCN(Cc3ccccc3)CC2)c1 > 76.9 µM, O=C(C1CCC(Cn2c(=S)[nH]c3ccccc3c2=O)CC1)N1CCN(c2ccccc2)CC1 (stereo not given) > 76.9 µM, Cc1cc(NCc2ccc(F)cc2Cl)n2nnnc2n1 > 76.9 µM, CCOC(=O)C(Cc1cc(C(C)=O)ccc1OC(C)C)C(=O)OCC > 76.9 µM, CCC(=O)Nc1ccc(Br)c(Cl)c1 > 76.9 µM, CC1C(C#N)=C(N)OC2=C1C(=O)CCC2 (stereo not given) > 76.9 µM, CCOc1ccccc1N(CC(=O)NCC1CCCO1)C(=O)CCC(=O)Nc1ccccn1 (stereo not given) > 76.9 µM, O=C1c2ccccc2C(=O)N1c1ccc(S(=O)(=O)N2CCN(c3ccccc3)CC2)cc1 > 76.9 µM, CCN1CCN(C(=O)C2c3cc(OC)c(OC)cc3C(=O)N3CCc4ccccc4C23)CC1 (stereo not given) > 76.9 µM, COc1ccc(Oc2ncnc3c2oc2ccc(Br)cc23)cc1 > 76.9 µM, COc1ccc(N2C(=O)CCC(C(=O)N(C)C3CCCCC3)C2c2ccc(OC)c(OC)c2)cc1 (stereo not given) > 76.9 µM, Cc1[nH]c2ccccc2c1C(=O)CN1CCCCC1C (stereo not given) > 76.9 µM, CCC(C)NC(=O)c1ccc(NC(=O)C2CCCO2)cc1 (stereo not given) > 76.9 µM, COc1ccc(N(CC(=O)Nc2ccc(C)cn2)S(=O)(=O)c2c(C)noc2C)cc1 > 76.9 µM, Cc1c(C(=O)NCC2COc3ccccc3O2)oc2ccc(S(=O)(=O)N3CCOCC3)cc12 (stereo not given) > 76.9 µM, COc1cccc(C(=O)N2CCN(S(=O)(=O)Cc3ccccc3)CC2)c1 > 76.9 µM, Cc1ccc(Cn2nc(C)c(NC(=O)c3noc4c3CCCCC4)c2C)cc1 > 76.9 µM, CCOC(=O)c1ccc(NC(=O)CCc2ccc(CC)o2)cc1 > 76.9 µM, CCOC(=O)N1CCN(C(=O)CN(Cc2ccccc2)S(C)(=O)=O)CC1 > 76.9 µM, Cc1c(C(=O)Nc2ccccc2N2CCOCC2)sc2nc3n(c(=O)c12)CCC3 > 76.9 µM, CCCCOc1ccc(CSc2ncn[nH]2)cc1 > 76.9 µM, Cc1ccc(C(=O)O)cc1S(=O)(=O)N1CCOCC1 > 76.9 µM, CCOC(=O)CSc1nc2c(c(=O)[nH]c(=O)n2C)n1C/C=C(/C)Cl > 76.9 µM, COCC(=O)N(C)c1nnc(-c2cnc(C)cn2)s1 > 76.9 µM, CC(=O)N1CCN(c2ccccc2NC(=O)COc2cc(C)ccc2C(C)C)CC1 > 76.9 µM, COCCCn1c(=N)c(C(=O)NCC2CCCO2)cc2c(=O)n3cccc(C)c3nc21 (stereo not given) > 76.9 µM, COc1cccc(OC)c1NC(=O)C1CCCN1C(=O)NCc1ccccc1 (stereo not given) > 76.9 µM, CCC(=O)N1CCCc2cc(S(=O)(=O)NCc3cccs3)ccc21 > 76.9 µM, O=C(CN1CCC(n2nnc3cc(C(F)(F)F)ccc32)CC1)N1CCc2ccccc21, O=c1c2ccccc2c(C=NC2CCS(=O)(=O)C2)c(O)n1-c1ccccc1 (stereo not given) > 76.9 µM, COCc1cc(C)n(CC(=O)Nc2ccccc2OC)c(=O)c1C#N > 76.9 µM, CCOC(=O)Nc1ccc(OC)cc1S(=O)(=O)N1CCCCC1 > 76.9 µM, COc1ccc(OC)c2[nH]c(=O)c(CCNC(=O)c3ccc(S(=O)(=O)N4CCCC4)cc3)cc12 > 76.9 µM, CC(=O)N1CCc2cc(S(=O)(=O)CCC(=O)N3CCN(c4ccccn4)CC3)ccc21 > 76.9 µM, CCOC(=O)N1CCN(C(=O)N2CCOCC2)CC1 > 76.9 µM, CCOC(=O)c1c(CN2CCOCC2)n(-c2ccccc2)c2ccc(O)cc12 > 76.9 µM, CC(C)C[C@H](NC(=O)NCc1ccc(Cl)cc1)C(=O)O > 76.9 µM, Cn1c(=O)c2cn(Cc3ccc(Cl)cc3)cc2n(C)c1=O > 76.9 µM, O=C1CC(N2CCC(O)(c3ccc(Cl)cc3)CC2)C(=O)N1Cc1ccc(N2CCCC2=O)cc1 (stereo not given) > 76.9 µM, COc1cc(C(C)=O)ccc1OCC(O)CN1CCN(S(=O)(=O)c2ccccc2)CC1 (stereo not given) > 76.9 µM, CCOC(=O)COc1ccc2nsnc2c1 > 76.9 µM, O=C(c1ccco1)N1CCN(c2nc3ccccc3c(=O)n2-c2ccccc2)CC1 > 76.9 µM, Cc1ccc(C)c(NC(=O)CSc2nnc(-c3ccncc3)n2N)c1 > 76.9 µM, O=C(NCCc1ccccc1)C1CCCN1C(=O)NCc1ccccc1 (stereo not given) > 76.9 µM, O=S(=O)(Nc1ccccc1N1CCOCC1)c1ccc(Cl)s1 > 76.9 µM, Cc1ccsc1C(=O)OCc1csc(-c2ccccc2)n1 > 76.9 µM, CCCn1c(N2CCN(CC(=O)NCc3cccs3)CC2)nc2ccccc21 > 76.9 µM, CCCS(=O)(=O)N1CCC(C(=O)NCCN2CCC(Cc3ccccc3)CC2)CC1 > 76.9 µM, COc1ccc(C(=O)NC2CCN(S(=O)(=O)Cc3ccccc3)CC2)c(OC)c1 > 76.9 µM, COc1ccc(CCn2c(SCC(=O)Nc3cc(C)on3)nc3ccsc3c2=O)cc1OC > 76.9 µM, CN(C)S(=O)(=O)c1ccc(/C(O)=C2/C(=O)C(=O)N(Cc3cccnc3)C2c2ccco2)cc1 (stereo not given) > 76.9 µM, O=c1[nH]c(CN2CCN(C/C=C/c3ccccc3)CC2)nc2ccccc12 > 76.9 µM, CCn1nc(NC(=O)c2ccncc2)c2cc3cc(C)ccc3nc21 > 76.9 µM, CCc1c(C)c2nncn2[nH]c1=O > 76.9 µM, COc1ccc(-c2nc(N)ncc2-c2csc(C)n2)c(O)c1 > 76.9 µM, O=C(CSc1nc2ccccc2o1)NC(=O)NCc1ccco1 > 76.9 µM, C=CCn1c(SCn2nnc3ccccc3c2=O)nc2scc(-c3cccs3)c2c1=O > 76.9 µM, CCc1nc(NCCN2CCOCC2)c2oc3ccccc3c2n1 > 76.9 µM, Cc1cnc(NC(=O)CN(C)S(=O)(=O)c2ccc(Cl)cc2)s1 > 76.9 µM, Cc1ccc(N(CC(=O)N2CCc3ccccc32)C2=NC(=O)CS2)cc1 > 76.9 µM, COc1ccc(CNc2nc3nc(-c4ccccc4)cc(=O)n3[nH]2)cc1OC > 76.9 µM, CC(C)OCCCNC(=O)C1CCC(=O)N1C(C)C (stereo not given) > 76.9 µM, COCCn1c(CN2CCC(Cc3ccccc3)CC2)nc2c1c(=O)n(C)c(=O)n2C > 76.9 µM, CCC(Sc1ccccn1)C(=O)Nc1nnc(C)s1 (stereo not given) > 76.9 µM, COc1ccccc1/C=c1\sc2nc(-c3cccs3)nn2c1=O > 76.9 µM, Cc1ccc(CNc2oc(-c3cccs3)nc2C#N)cc1 > 76.9 µM, Cc1ccc(CSc2nc3c(c(=O)[nH]2)C(c2ccncc2)C2=C(CCCC2=O)N3)cc1 (stereo not given) > 76.9 µM, Cc1cc(C(=O)O)c(S(C)(=O)=O)s1 > 76.9 µM, COc1ccc2c(c1OC)C(=O)NC(C)=C(C(=O)OC(C)(C)C)C2O (stereo not given) > 76.9 µM, Cc1ccc2c(c1)C1C=CCC1C(C(=O)O)N2 (stereo not given), CC1Oc2ccccc2N(CC(=O)c2ccccc2)C1=O (stereo not given) > 76.9 µM, CC1CCN(Cc2nc3c(c(=O)n(C)c(=O)n3C)n2CCc2ccccc2)CC1 > 76.9 µM, Brc1cnc(N2CCOCC2)nc1N1CCCCC1 > 76.9 µM, CCOc1ccccc1N1CCN(C(=O)c2cc[n+]([O-])cc2)CC1 > 76.9 µM, Cc1csc(NC(=O)CN2CCCCCC2)n1 > 76.9 µM, CC(C)OC(=O)c1nnn(-c2nonc2N)c1CN1CCCCCC1 > 76.9 µM, Cc1nn2c3c(cnc2c1-c1ccc(Cl)cc1)C(=O)CC(c1ccco1)C3 (stereo not given) > 76.9 µM, C=CCn1c(=O)c(C(=O)Nc2ccccc2C(=O)OCC)c(O)c2ccccc21 > 76.9 µM, COCCn1c(SC(C)C(=O)Nc2ccc3c(c2)OCCO3)nc2ccccc2c1=O (stereo not given) > 76.9 µM, CC(O)C(O)C(O)C(O)C1NCCS1 (stereo not given) > 76.9 µM, COc1ccc(S(=O)(=O)N2CCN(C(=O)[C@@H]3CCC(=O)N3C3OC(=O)c4ccccc43)CC2)cc1 (stereo not given in full) > 76.9 µM
